First the molecules themselves.
B1: LINE1-mini (parent)
chain: GGCAGAGCUCAACACAGCGUGGCAAAGUGGCUGUGGCUAGACUGCC

The source gives no read counts; variants with many changes may rest on few reads.

The text below walks through data of the RNAGym collection of RNA variant scans (doi:10.7554/elife.90254).

This data set covers variants of B1. In words: self-cleavage, relative activity (ratio to wild type); higher = more cleavage; in vitro, sequencing; the parent is a self-cleaving ribozyme.
Consider A6G G21A G44U, for which the self-cleavage was 0.21.
For A6G U20C A26C G27A C46A, the self-cleavage stood at 0.01.
A6G G29U G44C: the self-cleavage came to 0.14.
As for A6U G36U G40C A41G, the self-cleavage was found to be 0.37.
Take G7A C8U C10A G22C: the self-cleavage came to 0.04.
Take G7A A11C U20A G30C U32A C37A: the self-cleavage worked out at 0.
On to A6U A12C C18G U20C, for which the self-cleavage came out at 0.02.
The result for G7A A11U A12U G44A reads 0.02; that for A6G G22U A26G, 0.05; that for G7A A14C A16G, 0.08.
For A6G U32G G36U, the self-cleavage amounted to 0.03.
For the variant G7A C18A G40U, the self-cleavage was determined as 0.01.
Turning to G7A A11C A14U, the self-cleavage came to 0.02.
The result for A6U G21A G29A reads 0.71.
With A6U A12C G30A C31G C45G, the self-cleavage was 0.
As for A6G G22A C45U, the self-cleavage stood at 0.22.
The result for A6U G33A U43A reads 0.06.
Take A6U C8G G29A C31A: the self-cleavage was 0.04.
As to A6U A14U C15G A26G A41C, the self-cleavage is 0.06.
On to A6U U20G U34A G35C, for which the self-cleavage came out at 0.03.
Turning to A6U G35C C42A, the self-cleavage amounted to 0.05.
For A6U C13G C23G G30A, the self-cleavage was determined as 0.18.
As for G7A A11G A12G, the self-cleavage was 0.02.
For the variant A6U C18G A25U, the self-cleavage worked out at 0.17.
The result for G7A A16G G30A G33U C37G reads 0.01.
Consider G7A C8G A11G A25G C37U, for which the self-cleavage worked out at 0.02.
In the case of G7A A12C C13A, the self-cleavage came to 0.04.
Turning to A6U C23U U38A C46G, the self-cleavage was 0.17.
G7A C13G U32C: the self-cleavage came to 0.26.
A6U C23U A26U: the self-cleavage came out at 0.74.
As to G7A C13A G21A, the self-cleavage stood at 0.27.
Consider A6G G27U G33U U34G, for which the self-cleavage was 0.02.
In the case of A6U C13A C18U C42A U43C, the self-cleavage was 0.08.
With A6U C10U C13U G27C, the self-cleavage came to 0.05.
For A6U G21A A25U G27A, the self-cleavage is 0.28.
The result for G7A G17U G35U reads 0.21.
For the variant A6U C13U G17A, the self-cleavage worked out at 0.01.
The result for A6U C23A G33A reads 0.43.
The result for G7A C8A C37U reads 0.17; that for A6U A12U C37G A41G, 0.01.
For the variant G7A A14U C31U, the self-cleavage turned out to be 0.09.
Turning to G7A C8U G29U, the self-cleavage was 0.33.
The result for A6U C8U A11U U20G reads 0.02; that for G7A C18A U28A U34G, 0.03; that for A6U G27C U28C, 0.38.
Turning to A6U C8U C18U G36A C42G, the self-cleavage was 0.44.
Take A6G G22A A39G: the self-cleavage was determined as 0.02.
The result for A6G G22A A39C reads 0.31.
As to A6U A11U C31A A41G, the self-cleavage turned out to be 0.01.
Regarding A6U C18A G21U U43C G44C C46G, the self-cleavage turned out to be 0.06.
Turning to A6U G19C G30C G35A, the self-cleavage came out at 0.11.
Turning to A6U C13A C15G, the self-cleavage worked out at 0.35.
Take A6U C18U C46A: the self-cleavage was found to be 0.42.
For the variant A6U A11C C37A, the self-cleavage worked out at 0.01.
As to A6G U20G A41C C42A, the self-cleavage was determined as 0.01.
Regarding G7A C10G A12U A14U G27C G44U, the self-cleavage came to 0.04.
As for A6U C8A G30U, the self-cleavage came out at 0.48.
The result for G7A C15U C31G reads 0.11.
As to A6U A12G A24U A39C, the self-cleavage worked out at 0.06.
Turning to G7A C10A A16G, the self-cleavage was 0.02.
As for G7A C37A G40A U43C, the self-cleavage turned out to be 0.34.
The result for A6U C8G G30C U38C reads 0.03; that for A6G G36A G40U, 0.
For the variant A6U A12U C15G, the self-cleavage was 0.01.
G7A A14C A39C: the self-cleavage was 0.04.
The result for G7A G21C G29C C31A C37G C42A reads 0.01.
In the case of A6G G33C C45U, the self-cleavage was determined as 0.02.
Turning to A6U A12G G19C A26G U28C C46A, the self-cleavage worked out at 0.
Consider A6U U20C A24U A25U, for which the self-cleavage was found to be 0.72.
Take A6G U38C A41U: the self-cleavage came to 0.06.
Consider A6G U38C A41C, for which the self-cleavage stood at 0.02.
The result for A6U G7U C8A C31G U43A reads 0.28.
Regarding G7A C8U G40C, the self-cleavage stood at 0.15.
The result for A6U A25G C31A reads 0.2; that for A6U G21A A41G, 2.53.
Take G7A G19C U28G: the self-cleavage was determined as 0.03.
As to A6U C10A C23G A26U U32C C37G, the self-cleavage was determined as 0.02.
Regarding G7A C8G C31U, the self-cleavage worked out at 0.08.
As for A6U A39C C42U U43A, the self-cleavage came to 0.01.
With A6U A14C G30U, the self-cleavage was 0.04.
The result for G7A C31G G35U G40A reads 0.08; that for A6U A16U C18U C37G U38A, 0.05.
In the case of G7A A12G C18U U32C, the self-cleavage is 0.05.
For G7A C18U C42G, the self-cleavage came to 0.01.
The result for G7A C18G A39U reads 0.09; that for A6U U9G A26G U32G, 0.04; that for A6G U9A C42A, 0.02.
As to A6U G17C G22U C23U U38A G40U C45A, the self-cleavage came out at 0.11.
Turning to G7A C8A C15G C31A, the self-cleavage was determined as 0.09.
On to G7A C10A G17U A24U C31G, for which the self-cleavage came to 0.03.
Consider A6G G21U C37A, for which the self-cleavage amounted to 0.12.
For the variant A6U G19A G22A A26U G29C, the self-cleavage turned out to be 0.29.
The result for G7A C13U G17U G21C C42U reads 0.65; that for G7A A16G C23G, 0.06.
Consider A6U A11C U43A, for which the self-cleavage was 0.03.
As for G7A G17A C18A, the self-cleavage was found to be 0.13.
The result for G7A A11C A26G C31G G35U C46U reads 0.01; that for G7A C10U C23U, 0.34.
The result for A6G G22U C42A reads 0.11; that for G7A G17C G30A C37U A41C C45A, 0.06; that for G7A C13U G19U U32A U43A, 0.08.
Regarding A6U A12G G19C U20C A24C C37G, the self-cleavage stood at 0.01.
In the case of G7A C10G G21A G33A U34C, the self-cleavage came to 0.01.
Regarding A6U U9A G29U U32G G33A, the self-cleavage amounted to 0.32.
On to A6U G19U U38C, for which the self-cleavage stood at 0.13.
With A6U C31U A39U, the self-cleavage is 0.03.
The result for A6U G30C G36C reads 0.21.
Regarding A6U C10U G44C, the self-cleavage is 0.21.
On to A6U U32A C45U, for which the self-cleavage came out at 0.16.
As to A6U C10A A41U C42A, the self-cleavage came out at 0.05.
Take A6U G22A U38A G44C: the self-cleavage is 0.06.
With A6U C15G G21U U32C, the self-cleavage was 0.02.
As for A6U G7A C8G G19U G27U, the self-cleavage was determined as 0.04.
G7A A16C G17A C18G G19C U20G G21A A24C: the self-cleavage was 0.02.
In the case of A6U A12C C42G C46G, the self-cleavage amounted to 0.01.
As to A6U G19U A26C G30C, the self-cleavage came out at 0.
With G7A G19A U32A G40U, the self-cleavage came out at 0.34.
The result for A6U C23G G36A reads 0.19; that for G7A C10U A11C G35A, 0.04.
Turning to A6U A25G A39C, the self-cleavage was found to be 0.51.
Consider A6U C13G G27A, for which the self-cleavage was 0.08.
Turning to A6U A12G G33U, the self-cleavage was found to be 0.2.
In the case of G7A A11G G29C U38C G40C, the self-cleavage came to 0.01.
The result for A6U U20G G29A C31U U34C reads 0.01; that for G7A C13A G22U A41G, 0.28; that for G7A C31G U34C, 0.06.
Turning to A6G U34A G36C C37U, the self-cleavage worked out at 0.01.
Consider A6U G27U A41G, for which the self-cleavage worked out at 0.48.
On to G7A C10U C18U C23U, for which the self-cleavage is 0.05.
Regarding A6G G22A U34C G36C A41C C45A, the self-cleavage came to 0.
Regarding A6G G21C U34A G40A, the self-cleavage came out at 0.03.
A6U G7C C15A: the self-cleavage was found to be 0.21.
The result for A6U C13A A14G G21U G27C reads 0.49; that for G7A A16G A24U C37A, 0.31.
The result for A6U A24U G35A G44C reads 0.05.
In the case of G7A C13G C23A A24G, the self-cleavage turned out to be 0.31.
The result for A6U G29A G33A G35U C45U reads 0.3.
The result for A6U C8G C10G G19U A24G G29A C45A reads 0.01; that for A6U U9C A24G, 0.05.
Regarding G7A A24C U32C A39C, the self-cleavage is 0.
As for A6U C8A U28A C31G, the self-cleavage worked out at 0.05.
The result for G7A C23A A24U C31U C37G reads 0.02.
The result for A6U G7U A26G U28C C46A reads 0.11.
With A6U A24U G33U U34G C45U, the self-cleavage came out at 0.02.
Regarding G7A A26G G27U, the self-cleavage came to 0.08.
As for G7A C23G G44A, the self-cleavage came out at 0.07.
With G7A C8G C10U C23U G35U C46G, the self-cleavage worked out at 0.11.
With G7A C13U U38A, the self-cleavage turned out to be 0.28.
Turning to A6U C8U C45U, the self-cleavage was determined as 0.18.
For the variant A6U G7C C10A C46U, the self-cleavage was determined as 0.01.
Turning to G7A A11G C31U, the self-cleavage was found to be 0.01.
In the case of G7A C8U U43C, the self-cleavage turned out to be 0.25.
For A6U A12G U20G G40U A41G, the self-cleavage was 0.05.
As for A6G U32C G40A, the self-cleavage is 0.01.
As to G7A C10G C37G, the self-cleavage was determined as 0.02.
In the case of A6G G36A C37A, the self-cleavage was found to be 0.08.
For A6U A11U C18U G19U U20C G36U, the self-cleavage worked out at 0.03.
As to A6U C8G G29U U34C C46A, the self-cleavage stood at 0.04.
For the variant G7A C10U A16U U28C A39U G40U, the self-cleavage turned out to be 0.03.
Turning to A6U A12C C18U C31A, the self-cleavage is 0.01.
Turning to A6G U20C G22A G33A, the self-cleavage was found to be 0.03.
For the variant A6U C15G C42A, the self-cleavage is 0.38.
For the variant G7A C13A G22U, the self-cleavage came to 0.27.
On to A6U U28A G44A, for which the self-cleavage was 1.04.
For the variant A6U C13A U28G C37U, the self-cleavage worked out at 0.2.
In the case of A6U C8A C10U A11G, the self-cleavage was 0.04.
Consider A6U U20A U32A, for which the self-cleavage amounted to 0.05.
